Broadly, the % Inhibition is the change of the read-out against control, counted positive when it falls.

Screen size: about 150,000 compounds; about 540 (0.36%) showed an effect of 50% or more. The list shows a part of the results.

This assay concerns Plasmodium falciparum. The assay can be described thus: Primary screen in NF54 nanoGlo assay, in single point, at 2uM, 72h; a lower Z score goes with more inhibition. Format: functional, Erythrocyte. The settings on record: timepoint 72 hour.
`COC[C@@]12CCN(C(=O)Nc3ccccc3)C[C@@H]1CN(S(C)(=O)=O)C2`: the “% Inhibition” value was -23% and the Z score amounted to 2.71.
With `O=C(c1cn2cccnc2n1)N1CCC(c2nccn2CC2CCC2)CC1`, the “% Inhibition” value is on record as -10% and the Z score is 1.74.
In the case of `O=C(NCc1ccc(F)cc1)c1cncnc1C1CC1`, the “% Inhibition” value is 5% and the Z score was -0.58.
For `COCCN(Cc1c(-c2ccccc2)nn(C)c1Oc1ccc(OC)cc1)C[C@H](O)COC`, the “% Inhibition” value amounted to 10% and the Z score was -1.28.
Turning to `CCc1nnc2n1C[C@@H](NCc1ccccc1OCC(=O)NC)CC2`, the “% Inhibition” value is on record as -13% and the Z score worked out at 1.2.
Regarding `O=C(c1ccno1)N1CC[C@H](Oc2cnccn2)C1`, the “% Inhibition” value was 2% and the Z score is listed as -0.21.
For `CN(C)C(=O)c1cccc(Oc2nccs2)c1` the same measures were 32% and -3.62.
The like results for `COc1cccc(C(=O)NC[C@H]2c3cc(OC)c(OC)cc3CCN2Cc2ccc(C)cc2)c1` were, in that order, 11% and -1.43.
For `Cc1cccc(C)c1OCC(=O)N[C@@](C)(CO)C(C)C` the same measures were -6% and 0.88.
Consider `O=C(N[C@@H]1COCC[C@@H]1OCC1CC1)C1CCN(Cc2ccco2)CC1`, for which the “% Inhibition” value is reported as 2% and the Z score is reported as -0.42.
For `CCN1CCNC(=O)[C@@H]1Cc1nc(-c2cccnn2)no1`, the “% Inhibition” value is listed as -13% and the Z score is 1.68.
Turning to `Cc1cccc(-n2nc(CC(C)C)nc2CNC(=O)N(C)C)n1`, the “% Inhibition” value is given as 9% and the Z score is -1.79.
For `Cc1ccc([C@@H]2CC(c3cccn3C)=NN2C(=O)CN(CCN2CCOCC2)C(=O)c2cccc(F)c2)cc1` the same measures were 12% and -1.89.
For `O=C(Cn1cccc1C(=O)c1ccccc1)NC1CCN(Cc2ccccc2)CC1` the same measures were -12% and 2.35.
For `O=S(=O)(c1ccccc1)N1CCC(OC2CCN(Cc3cccnc3)CC2)CC1` the same measures were -10% and 1.23.
In the case of `CCn1nccc1C(=O)N(Cc1ccccc1)CC1(C)CCOCC1`, the “% Inhibition” value is -7% and the Z score came to 1.09.
Turning to `CCc1onc(C)c1NC(=O)NCc1cc(C2CC2)nn1C`, the “% Inhibition” value is -19% and the Z score was 1.88.
Take `CCOC(=O)c1c(C)n(-c2ccc(OC)cc2)c2ccc(OC(=O)C#Cc3ccccc3)cc12`: the “% Inhibition” value is on record as -3% and the Z score turned out to be 0.44.
The like results for `CCOC(=O)C(F)C1CCN(Cc2c(C)nsc2C)C1` (centres undefined) were, in that order, -11% and 1.48.
For `COc1cccc(NC(=O)C2=CCN(Cc3ccc(Cl)cc3)CC2)c1`, the “% Inhibition” value was determined as 21% and the Z score is -2.67.
For `O=C(Nc1nncs1)c1ccc(NCCOc2ccccc2)nc1` the same measures were -9% and 0.87.
In the case of `O=C1NCCC[C@H]1C(=O)c1cc(-c2ccccc2)nc2ccccc12`, the “% Inhibition” value is on record as -11% and the Z score was 1.57.
On to `CN1CCN([C@H]2CCCCN(C(=O)CCc3ccc(F)cc3)C2)CC1`, for which the “% Inhibition” value is -10% and the Z score worked out at 0.91.
For `CCOc1ccc([C@H](CC)NCc2cnc(C)nc2)cc1`, the “% Inhibition” value was -5% and the Z score came to 0.79.
The like results for `COc1ccc(NC(=O)Cc2nnc(-c3ccncc3)o2)cc1Cl` were, in that order, 4% and -0.39.
Take `CCc1cc(CNS(=O)(=O)N2CCCCC2)on1`: the “% Inhibition” value is listed as -15% and the Z score is listed as 1.97.
The like results for `Cc1cc(-c2ccc(C)c(S(=O)(=O)N3CCN(c4cccc(C(F)(F)F)c4)CC3)c2)on1` were, in that order, -3% and 0.43.
Consider `COc1cccc(CNC(=O)c2cn3ccnc(-c4ccc(F)cc4)c3n2)c1OC`, for which the “% Inhibition” value is -11% and the Z score was 1.77.
Regarding `COc1ccccc1N(C(C)=O)c1nc(COc2cc(C)nc(C)c2C#N)cs1`, the “% Inhibition” value was -11% and the Z score is recorded as 1.1.
`COCCCNS(=O)(=O)c1ccc(-c2cc(C)no2)o1`: the “% Inhibition” value is reported as -1% and the Z score is 0.26.
For the compound `CCN1CCN(C(=O)c2n[nH]c3c2CN(C(=O)Cc2ccc(C)cc2)CC3)CC1`, the “% Inhibition” value is reported as -6% and the Z score is 0.68.
As to `O=C(c1cn2c(n1)CCCC2)N1CCN(c2ccccc2F)CC1`, the “% Inhibition” value is listed as -13% and the Z score came out at 2.16.
Take `Cc1c(-c2ccccc2)nn(C)c1NC(=O)NCCN1CCNC1=O`: the “% Inhibition” value was -11% and the Z score came out at 1.03.
The like results for `Cc1nnnn1CCc1nc(CC(N)=O)nn1-c1ccc(F)c(F)c1` were, in that order, -4% and 0.85.
With `Cc1ccc(F)c(CN2CCN[C@H](C(=O)NCc3cccnc3)C2)c1`, the “% Inhibition” value is -22% and the Z score is listed as 2.12.
For `C[C@@H](c1nccs1)N1CCN(C(=O)c2ccc(C(N)=O)s2)CC1` the same measures were -14% and 1.46.
Turning to `O=C(c1cc(-c2cccnc2)n[nH]1)N1CCc2nc[nH]c2C1`, the “% Inhibition” value is on record as -9% and the Z score is 1.2.
The like results for `COc1ccc(NC(=O)Cn2nc(N3CCCCCC3)c3ccccc3c2=O)cc1` were, in that order, -6% and 0.97.
In the case of `COc1cccc(C(=O)Nc2cc(C)nn2-c2nc3c(cnn3-c3ccc(C)cc3)c(=O)[nH]2)c1OC`, the “% Inhibition” value turned out to be 3% and the Z score is on record as -0.5.
For `CC(C)n1ccc(C(=O)N(C)CCC[C@H]2CCCO2)n1`, the “% Inhibition” value is listed as -7% and the Z score stood at 1.36.
For `Cc1ccccc1OCC(=O)OC1CCCN(C)C1` (centres undefined) the same measures were -16% and 1.42.
Consider `Cc1sc2ncnc(N3CCN4C(=O)OC[C@H]4C3)c2c1C`, for which the “% Inhibition” value is given as -3% and the Z score is given as 0.56.

Values taken from ChEMBL document CHEMBL4888484, “Replenishing the malaria drug discovery pipeline: Screening and hit evaluation of the MMV Hit Generation Library 1 (HGL1) against asexual blood stage Plasmodium falciparum ,using a nano luciferase reporter read-out” (2022).
